Publication PMC6451091
Some of the results follow. For part of these data: At the low end of the ranking the order means little. For part of these data: The protein was read in a cell extract, so binding may be indirect.

Key:
Details in all cases: 20 mM HEPES pH 7.9, 100 mM NaCl, 1 mM DTT, 0.2 mg/mL BSA, 0.02% Triton X-100, 2% milk, 0.4 mg/mL salmon testes DNA; 1 h; temperature not stated; high values mean tight binding; double strand, one strand shown; sequences stand for … in GCCTAGCAC…GTGCTAGGTCTTGATTCGCTTGACGCTGCTG
PU.1 (IVT) = PU.1 (IVT) (UniProt P17947); assay: protein-binding microarray (PBM)
[1] = molecular target: PU.1 (endogenous, THP-1 nuclear extract) (UniProt P17947); assay: nuclear extract protein-binding microarray (nextPBM)
[2] = molecular target: T1, FLI1 (endogenous, THP-1 nuclear extract) (UniProt Q01543); assay: as above
T1 sequence: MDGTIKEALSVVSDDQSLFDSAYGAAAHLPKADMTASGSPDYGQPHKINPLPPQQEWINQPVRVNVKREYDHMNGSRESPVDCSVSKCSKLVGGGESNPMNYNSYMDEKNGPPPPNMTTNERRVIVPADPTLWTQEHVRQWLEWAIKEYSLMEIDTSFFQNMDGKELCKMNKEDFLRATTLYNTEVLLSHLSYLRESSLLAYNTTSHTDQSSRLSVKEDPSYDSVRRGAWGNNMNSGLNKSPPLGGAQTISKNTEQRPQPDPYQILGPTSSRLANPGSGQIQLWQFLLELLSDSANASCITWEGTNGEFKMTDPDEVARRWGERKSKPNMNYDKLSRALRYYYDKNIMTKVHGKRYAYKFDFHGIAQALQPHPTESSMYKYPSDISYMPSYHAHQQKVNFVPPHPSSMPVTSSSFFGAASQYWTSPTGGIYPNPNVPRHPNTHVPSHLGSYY

Sequence | binding signal (PU.1 (IVT)) | binding signal [1] | binding signal [2]
AAAGAAAGGAACTGGCTAGA | 1.14 z-score | 1.15 z-score | 0.666 z-score
GAAAAGAGGAACTGGACCCT | 7.24 z-score | 6.89 z-score | 2.94 z-score
TCAAAAAGGAAGTCGCTGAC | 2.98 z-score | 2.97 z-score | 2.27 z-score
CAGAAAAGGAAGTAAAGACA | 3.84 z-score | 3.63 z-score | 2.08 z-score
AAATTGAGGAAATGCAGAGA | 3.63 z-score | 3.74 z-score | 1.85 z-score
ACAAAAAGGAACGGTGCCCC | -0.22 z-score | 0.411 z-score | -0.0827 z-score
TCCATGAGGAAGTGGGCTAA | 4.48 z-score | 5.07 z-score | 2.32 z-score
CCTTTGGGGAAGTGGTTAAG | 4.15 z-score | 4.61 z-score | 1.85 z-score
GATAAGAGGTAGTCCTCTGT | 0.495 z-score | 1.21 z-score | -0.249 z-score
AGGAAGTGGAAGTGGGGCAT | 2.38 z-score | 2.73 z-score | 5.08 z-score
TAAAGGAGGAAGTGCGAACC | 5.34 z-score | 6.06 z-score | 2.77 z-score
TTAAAGGGGAAGTGGACAAA | 5.86 z-score | 6.23 z-score | 2.47 z-score
GAGAAGGGGAACTGTTGTTT | 3.62 z-score | 2.96 z-score | 1.29 z-score
AAAAAGAGGAAGTCGTTTTC | 8.57 z-score | 7.41 z-score | 4.46 z-score
AGAAAGAGGAAGTGGGTGTT | 8 z-score | 7.31 z-score | 4.31 z-score
TGAAAGAGGAAGTGAACCAT | 7.46 z-score | 7.51 z-score | 4.24 z-score
AATAAGAGGAAGTGACTATT | 7.49 z-score | 7.12 z-score | 3.69 z-score
AGAAAGAGGAACTGACTGAC | 6.61 z-score | 6.69 z-score | 2.79 z-score
CAAAAAGGGAAGTGGATGCT | 6.64 z-score | 6.66 z-score | 2.73 z-score
AGTAGGGGGAAGTGTGCATG | 3.65 z-score | 3.27 z-score | 1.82 z-score

Sequence | binding signal (PU.1 (IVT)) | binding signal [1] | binding signal [2]
CACAAAGGGAAGTGGATGCT | 3.48 z-score | 3.27 z-score | 1.92 z-score
GAAGGGAGGAAGTGAAACTT | 3.67 z-score | 5.84 z-score | 3.14 z-score
GCAGGGAGGAAGTGGGGAAG | 3.42 z-score | 3.54 z-score | 2.87 z-score
AGAATGGGGAAGTCACTAAC | 6.3 z-score | 6.52 z-score | 2.48 z-score
GGGAAGGGGAAGTGGTGGCA | 4.91 z-score | 5.53 z-score | 2.58 z-score
AAGAAGAGGAAGTGGTTTAT | 7.33 z-score | 7.18 z-score | 4.22 z-score
GATTTGAGGAAATGGAACTT | 3.67 z-score | 3.23 z-score | 2.09 z-score
ACAGAAAGGAACTGTGCCCC | 0.832 z-score | 0.817 z-score | 0.558 z-score
TGAAAAGGGAAGTGAGGAAG | 5.34 z-score | 6.23 z-score | 2.69 z-score
CAAAAAGGGAAGGGGATGCT | 2.11 z-score | 2.8 z-score | 0.868 z-score
GAAATGAGGAACTGATTGGG | 6.47 z-score | 6.73 z-score | 2.55 z-score
GAAATGAGGAAGTCGATGAC | 7.27 z-score | 7.1 z-score | 3.19 z-score
TAAAGCAGGAAGTGAGAATG | 3.79 z-score | 4.46 z-score | 4.16 z-score
AAAAAGGGGAAGTTGGGGAT | 8.45 z-score | 7.45 z-score | 3.68 z-score
ATGAAGAGGAAGTGAACTAA | 5.04 z-score | 5.86 z-score | 3.17 z-score
TGAAAGAGGAACCGCAACAC | 4.1 z-score | 4.41 z-score | 1.51 z-score
CCAATGAGGAAGTGCATTCA | 6.15 z-score | 6.44 z-score | 2.7 z-score
GTTTTGAGGAAGTCCAAACC | 5.5 z-score | 5.97 z-score | 2.14 z-score
TCAAAGAGGAAGTGACTTCG | 6.71 z-score | 6.78 z-score | 3.7 z-score
GGAAAGAGGAAGTGAGTGGG | 8.08 z-score | 7.41 z-score | 4.19 z-score

Sequence | binding signal (PU.1 (IVT)) | binding signal [1] | binding signal [2]
AAAAAGAGGAAGAGACACCA | 5.39 z-score | 6.43 z-score | 2.68 z-score
ACAAGAAGGAACTGTGCCCC | 1.28 z-score | 1.33 z-score | 0.666 z-score
CCAATGAGGAAGAGAAAAAA | 2.26 z-score | 2.27 z-score | 1.04 z-score
TAAAGGAGGAAGTTGCCCTG | 6.11 z-score | 6.43 z-score | 2.93 z-score
AAGAAGGGGAAGTGGGCTGG | 5.66 z-score | 6.17 z-score | 2.65 z-score
ATTTAAGGGAAGTGGGCGTG | 3.42 z-score | 3.87 z-score | 1.77 z-score
CAAAAGAGGAAGTCATTTAT | 8.11 z-score | 7.43 z-score | 4.14 z-score
TAAAGAGGGAAGTGTGACTA | 3.89 z-score | 3.96 z-score | 2.03 z-score
GGGAAAAGGAAGTAAGTTGG | 4.31 z-score | 3.9 z-score | 2.63 z-score
CTTATGGGGAAGTGCTCTAT | 5.17 z-score | 5.22 z-score | 1.79 z-score
GACAACAGGAAGTGGGAGTT | 4.38 z-score | 4.52 z-score | 5.17 z-score
GATAAGAGGAAGGCCTCTGT | 1.63 z-score | 2.24 z-score | 0.928 z-score
GCTGGGAGGAAGTGGGCTGG | 3.1 z-score | 3.43 z-score | 2.63 z-score
AGAGAGGGGAAGTAACTGTC | 5.25 z-score | 5.04 z-score | 2.38 z-score
TTGTGGGGGAAGTGGCTTTG | 2.85 z-score | 2.91 z-score | 1.51 z-score
GGAAACAGGAAGTGATTGCT | 7.36 z-score | 7.09 z-score | 5.6 z-score
GAAAGGGGGAAGTGCAGCTG | 5.05 z-score | 5.4 z-score | 2.25 z-score
GAAATGAGGAAATGAATGGG | 4.97 z-score | 5.14 z-score | 2.31 z-score
AAGGTGAGGAACTACTGTGT | 2.24 z-score | 2.08 z-score | 0.399 z-score
AAAATGAGGAACTGATCAAA | 6.67 z-score | 6.8 z-score | 2.17 z-score
